Test results taken from PubChem BioAssay AID686978 (National Center for Advancing Translational Sciences (NCATS), 2013).
About 64,000 (15%) of roughly 420,000 compounds were called active. The shares of active, inactive and inconclusive entries below differ from those in the screen. The call rests on the fitted dose curve; in most records, active means well fitted inhibition curve with a large enough effect; inconclusive means small, poorly fitted or top-dose-only effect; inactive means flat fitted curve, though single readings scatter. Potencies of inconclusive entries are left out as doubtful fits.

Assay: qHTS for Inhibitors of human tyrosyl-DNA phosphodiesterase 1 (TDP1): qHTS in cells in absence of CPT; further: nearly all actives have a fitted effect of over 55% in size
Details: DT40 Tdp1-/- hTDP1 cells, no CPT, ATP luminescence, 48 h; activity change, negative = growth inhibition: at 46.2 µM (top of the series) unless noted
Procedure, shortened: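 Stably hTDP1-transfected Tdp1-null chicken DT40 cells were treated with library compounds minus camptothecin and grown for at least 48 hr at 37 °C, after which cellular ATP was quantified by luminescence.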
On the % scale 0 is the no-effect control and ±100 the full control effect; potency means the concentration at half of the fitted maximal effect; tags describe the fitted curve by direction and shape.

Structure (SMILES)	activity change, negative = growth inhibition	Potency
CC1CCN(S(=O)(=O)c2cccc3cccnc23)CC1	inactive: -13.9%	
Clc1ccccc1/C=C/c1nc(-c2cccnc2)no1	inactive: -1.75%	
CCOC(=O)C1Nc2ccc(OC(F)(F)F)cc2C2C=CCC12 (stereo not given)		inconclusive [inhibitor, single point]
CCN1CCC(N(Cc2ccc3c(c2)OCO3)C(=O)Nc2cccc(C)c2C)CC1		inconclusive [inhibitor, single point]
c1ccc2c(SCc3cn4cccnc4n3)ncnc2c1		inconclusive [inhibitor, single point]
CCOC(=O)c1c(-c2ccc(C)o2)csc1NC(=O)CSc1nnnn1-c1ccccc1		inconclusive [inhibitor, single point]
CCN(CC)S(=O)(=O)c1ccc(Cl)c(C(=O)NCc2ccccc2Cl)c1		inconclusive [inhibitor, single point]
O=[N+]([O-])c1cc(S(=O)(=O)Nc2ccccc2)ccc1NCc1ccccc1	inactive: -2.36%	
CN(C)S(=O)(=O)n1cc(/C=C(\NC(=O)c2ccccc2Cl)C(=O)NCCN2CCOCC2)c2ccccc21		inconclusive [inhibitor, single point]
CC(C)C(C(=O)Nc1ccc2c(c1)OCCOCCOCCOCCO2)N1C(=O)c2ccccc2C1=O (stereo not given)	inactive: -2.65%	
COc1cccc(C(=O)C2CCCN(C(=O)c3cccc(C#CC(C)(C)O)c3)C2)c1 (stereo not given)		inconclusive [inhibitor, single point]
CCNC(=O)C1(C)CCN(C(=O)c2ccc(F)c(Cl)c2)C1 (stereo not given)	inactive: -16.6%	
CC(C)(C)c1ccc(OCC(O)CN2CCOCC2)cc1 (stereo not given)		inconclusive [inhibitor, single point]
CC(=O)N(C)c1ccc(NC(=S)NC(=O)/C=C/c2ccco2)cc1	inactive: -9.86%	
CC(=O)N1CCCc2cc(S(=O)(=O)NCc3ccccc3Cl)ccc21		inconclusive [inhibitor, single point]
Cc1ccc(-n2c(=O)c3c(C)c(C)sc3n(Cc3cc(=O)n4ccccc4n3)c2=O)cc1C		inconclusive [inhibitor, partial curve]
CCc1ccc(NC(=O)C2CCC(CNC(=O)[C@@H]3Cc4ccccc4CN3)CC2)cc1 (stereo not given in full)		inconclusive [inhibitor, single point]
Cc1ccc(C)c(NC(=O)c2cc(S(=O)(=O)N3CCN(c4cccc(Cl)c4)CC3)ccc2F)c1		inconclusive [inhibitor, partial curve]
O=C(Nc1ccccc1C(=O)O)c1ccc(Cl)c(S(=O)(=O)N2CCOCC2)c1		inconclusive [inhibitor, single point]
O=C(CNc1ccc2ccccc2c1)N/N=C/C=C/c1cccc([N+](=O)[O-])c1		inconclusive [inhibitor, single point]
NC(=O)C1(NC(=O)[C@@H]2CC3(CC(c4cccc(NC(=O)[C@@H]5CCC(=O)N5)c4)=NO3)CN2C(=O)c2cnccn2)CC1 (stereo not given in full)	inactive: 11.2%	
COC(=O)C1=CO[C@@H](O[C@@H]2O[C@H](CO)[C@@H](O)[C@H](O)[C@H]2O)C2C(CO)=CCC12 (stereo not given in full)	inactive: 6.87%	
CCN(Cc1ccccc1)C(=O)C1CCC(CNS(=O)(=O)c2ccc3c(c2)CCCC(=O)N3)CC1 (stereo not given)		active: 16.4 µM

Structure (SMILES)	activity change, negative = growth inhibition	Potency
C/C(=N\NC(=O)CCn1nnc2ccccc21)c1ccco1	inactive: -1.43%	
COCCCNC(=O)/C(C#N)=C1\N=C(NC(=O)c2cccs2)c2ccccc21		inconclusive [inhibitor, single point]
O=S(=O)(NNc1ccc(F)cc1F)c1cccc(Cl)c1	inactive: 2.13%	
CCN(CC(=O)NCc1cccs1)C(=O)c1ccc(S(=O)(=O)Nc2cccc(C)c2C)cc1		inconclusive [inhibitor, single point]
O=C(Nc1ccc(NC(=O)c2cccs2)cc1)c1cccnc1	inactive: -24.2%	
COc1ccc(CN(CCCn2cnc3c(OC)ncnc32)CCCn2cnc3c(OC)ncnc32)cc1		inconclusive [inhibitor, partial curve, poor fit]
COC(=O)NCC(C)OC(=O)Nc1cccc(Cl)c1 (stereo not given)	inactive: -4.52%	
O=C(Nc1ccccc1C(F)(F)F)c1noc2c1CCCC2		inconclusive [inhibitor, single point]
Oc1c(C(c2ccccc2Cl)N2CCC(O)CC2)sc2nc(-c3ccco3)nn12 (stereo not given)		inconclusive [inhibitor, single point]
CCC(CO)Oc1cc(NCc2cccc(C)c2)c2ncn(C(C)C)c2c1 (stereo not given)		inconclusive [inhibitor, single point]
CCOc1cc(OCC)cc(C(=O)N2CCC[C@@H]2C(=O)N2CCC[C@H]2C(=O)NCc2ccncc2)c1	inactive: -19.5%	
CCN(C(=O)Cn1cc(S(=O)(=O)N2CCN(c3ccccc3F)CC2)c2ccccc2c1=O)c1ccc(C)c(C)c1		active: 10.3 µM
COc1cccc(CC(NC(C)=O)C(=O)NC2CCN(S(=O)(=O)c3ccc(F)cc3)CC2)c1OC (stereo not given)	inactive: -3.74%	
Cc1ccc(OCCN2CCCCCC2)c(C)c1		inconclusive [inhibitor, single point]
CC(=O)Nc1ccc(S(=O)(=O)Nc2nccc(C)n2)cc1		inconclusive [inhibitor, single point]
CCOC(=O)c1c(C)[nH]c(C)c1C(=O)COC(=O)/C=C/c1cccc(F)c1	inactive: -23%	
CCOC(=O)c1c(C)c(C(=O)N2CCN(C(=O)c3ccco3)CC2)c(C)n1C	inactive: 11.8%	
[N-]=[N+]=CC(=O)c1ccnc(C(=O)C=[N+]=[N-])c1		inconclusive [inhibitor, single point]
O=C(CCCCCN1C(=O)c2cccc3cccc(c23)C1=O)NCc1ccco1	inactive: -20.4%	
Cc1ccc(S(=O)(=O)c2nnn3c2nc(N2CCCC(C)C2)c2cc(Cl)ccc23)cc1C (stereo not given)	inactive: -12.4%	
CCOC(=O)CSc1ncnc2c1sc1nc(N3CCOCC3)c3c(c12)CCCC3	inactive: -25.3%	
CN(C)C(=O)c1cc(C(=O)c2ccc(Cl)cc2Cl)c[nH]1	inconclusive: -34.7% [inhibitor]	
